According to PubChem BioAssay AID588591 (National Center for Advancing Translational Sciences (NCATS), 2011):
Out of some 390,000 compounds screened, about 4,700 (1.2%) were called active. Inconclusive results, whose numbers are uncertain, are shown with a selection of clear calls. Calls come from the whole dose curve; as a rule, active = well fitted inhibition curve with a large enough effect; inconclusive = small, poorly fitted or top-dose-only effect, or another doubt; inactive = no such curve, though single readings can be large or run the other way. A potency beside an inconclusive call is a rough fit, not a confirmed value.

Biological target: DNA polymerase eta (Homo sapiens) (UniProt Q9Y253)
Sequence of UniProt Q9Y253 (Q9Y253 whole entry, looked up): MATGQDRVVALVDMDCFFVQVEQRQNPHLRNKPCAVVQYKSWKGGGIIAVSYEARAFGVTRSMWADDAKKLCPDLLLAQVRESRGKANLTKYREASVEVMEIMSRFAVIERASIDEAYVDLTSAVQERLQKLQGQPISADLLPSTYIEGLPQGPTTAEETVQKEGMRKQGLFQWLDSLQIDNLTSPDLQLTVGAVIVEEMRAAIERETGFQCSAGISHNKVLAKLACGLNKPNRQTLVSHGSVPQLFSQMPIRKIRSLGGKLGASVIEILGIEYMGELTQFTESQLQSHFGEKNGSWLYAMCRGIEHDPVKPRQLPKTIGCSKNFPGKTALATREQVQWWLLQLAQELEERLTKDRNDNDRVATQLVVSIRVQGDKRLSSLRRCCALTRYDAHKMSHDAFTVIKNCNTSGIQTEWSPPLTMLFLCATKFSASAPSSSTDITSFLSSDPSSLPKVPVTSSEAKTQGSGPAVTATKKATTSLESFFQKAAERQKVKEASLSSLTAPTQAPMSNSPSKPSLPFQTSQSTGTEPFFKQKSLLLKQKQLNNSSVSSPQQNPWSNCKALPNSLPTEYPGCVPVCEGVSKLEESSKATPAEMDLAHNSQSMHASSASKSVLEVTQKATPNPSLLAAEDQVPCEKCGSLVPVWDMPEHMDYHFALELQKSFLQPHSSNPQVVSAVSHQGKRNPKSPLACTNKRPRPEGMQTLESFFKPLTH
Experiment: qHTS for Inhibitors of Polymerase Eta
Settings: recombinant Pol eta, fluorescent DNA replication assay; series mostly up to 114 µM
How it was run: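 Fluorescent replication assay: 50 nM final substrate added after a 15 min room-temperature compound preincubation with 10 nM enzyme. Signal taken at 0 min and again at 10 min.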
Potency is the fitted concentration of half-maximal effect; tags give direction and shape of the fitted curve.

**Q.** For N=c1oc2cc(O)ccc2cc1C(=O)Nc1nc2ccccc2s1, which Potency is on record?
**A.** inconclusive: 35.5 µM [inhibitor, partial curve]

**Q.** For COC(=O)c1oc2ccc(Cl)cc2c1N, which Potency is on record?
**A.** inconclusive: 12.6 µM [inhibitor, partial curve, poor fit]

**Q.** With NC(=O)c1ccc(SCC(=O)OCC(=O)NCc2ccco2)c([N+](=O)[O-])c1 as the compound, how does the Potency read?
**A.** inconclusive: 14.1 µM [inhibitor, partial curve, poor fit]

**Q.** How did the Potency turn out when CCOP(=O)(OCC)C(C#N)=C1SCN(c2ccccc2)CS1 was run?
**A.** active: 39.8 µM

**Q.** CS(=O)(=O)c1ccc(C(=O)OCC(=O)NC(=O)C2CCCCC2)cc1[N+](=O)[O-] was tested. Which Potency did it give?
**A.** inconclusive: 56.2 µM [inhibitor, partial curve]

**Q.** For O=C(Nc1ccccc1C(F)(F)F)C1CCN(S(=O)(=O)Cc2ccccc2)CC1, which Potency is on record?
**A.** inactive

**Q.** Fc1cccc(-c2nn[nH]n2)c1 was tested. Which Potency did it give?
**A.** inactive

**Q.** With Cn1nccc1C(=O)NC1CCCc2c1cnn2-c1ccc(C(C)(C)C)cc1 (centres undefined) as the compound, how does the Potency read?
**A.** inconclusive: 100 µM [inhibitor, partial curve, poor fit]

**Q.** How did the Potency turn out when COc1ccc(NS(=O)(=O)c2ccc(N/N=C(\C)c3ccncc3)c([N+](=O)[O-])c2)cc1 was run?
**A.** inconclusive: 17.8 µM [inhibitor, partial curve, poor fit]

**Q.** With O=C(CSc1ccsc1[N+](=O)[O-])NC1CCCC1 as the compound, how does the Potency read?
**A.** active: 56.2 µM

**Q.** For COc1cccc(NC(=O)CN(C)C(=O)c2cccc(S(=O)(=O)N3c4ccccc4CC3C)c2)c1 (centres undefined), which Potency is on record?
**A.** inactive

**Q.** For COCCn1c(C)cc(C(=O)COC(=O)c2ccc(NC(=O)CC#N)cc2)c1C, which Potency is on record?
**A.** inconclusive: 15.8 µM [inhibitor, full curve, poor fit]

**Q.** How did the Potency turn out when O=C(CN1C(=O)NC2(CCCCC2)C1=O)Nc1cccc(Cl)c1Cl was run?
**A.** inactive

**Q.** Which Potency does the source give for O=C1c2ccccc2C(=O)C1c1ccc2ccccc2n1 here?
**A.** inconclusive: 10 µM [inhibitor, partial curve]

**Q.** With C=C(C(=O)c1ccccc1)C(C)C(=C)C(=O)c1ccccc1 as the compound, how does the Potency read?
**A.** inconclusive: 28.2 µM [inhibitor, single point]

**Q.** Cc1ccc(C)c(NC(=S)NC(NC(=O)Cc2cccc3ccccc23)C(Cl)(Cl)Cl)c1 (centres undefined) was tested. Which Potency did it give?
**A.** inconclusive: 17.8 µM [inhibitor, partial curve, poor fit]

**Q.** Cc1cc(C(=O)c2ccc(Cl)cc2)c(NC(=O)CCl)s1 was tested. Which Potency did it give?
**A.** inconclusive: 31.6 µM [inhibitor, partial curve, poor fit]

**Q.** For COc1cc(/C=C(\C#N)c2nc3ccccc3[nH]2)ccc1OCc1ccccc1F, which Potency is on record?
**A.** inconclusive: 79.4 µM [inhibitor, partial curve]

**Q.** Cc1ccc(C(=O)c2oc3ccc(Cl)cc3c2NC(=O)CN2CCN(C)CC2)cc1 was tested. Which Potency did it give?
**A.** inconclusive: 17.8 µM [inhibitor, full curve, poor fit]

**Q.** Which Potency does the source give for O=CN1CCN(CC(O)Cn2c3ccccc3c3ccccc32)CC1 (centres undefined) here?
**A.** inactive

**Q.** Which Potency does the source give for Cc1ccc(OCc2nnc(SCc3nc4ccccc4[nH]3)n2Cc2ccco2)cc1 here?
**A.** inconclusive: 12.6 µM [inhibitor, partial curve, poor fit]

**Q.** For NS(=O)(=O)c1ccc(N=Nc2c(O)ccc3ccccc23)cc1, which Potency is on record?
**A.** inconclusive: 44.7 µM [inhibitor, partial curve, poor fit]

**Q.** How did the Potency turn out when O=C(Cc1ccc(S(=O)(=O)N2CCOCC2)s1)Nc1ccc2c(c1)CCC2 was run?
**A.** inconclusive: 35.5 µM [inhibitor, partial curve, poor fit]

**Q.** How did the Potency turn out when COc1ccc(NC(=O)CSCC(=O)Nc2ccc(S(=O)(=O)N3CCCC3)cc2)cc1 was run?
**A.** inconclusive: 79.4 µM [inhibitor, partial curve, poor fit]

**Q.** How did the Potency turn out when Cc1cc(C)cc(NC(=O)N2CCC(CN3CCCCCC3)CC2)c1 was run?
**A.** inactive

**Q.** For O=C(/C=C/c1ccco1)N/C(=C\c1ccco1)C(=O)NCCc1nc2ccccc2[nH]1, which Potency is on record?
**A.** inconclusive: 28.2 µM [inhibitor, partial curve, poor fit]

**Q.** How did the Potency turn out when COc1ccc(OC)c(/C(O)=C/C(=O)C(=O)Nc2cc(C)cc(C)c2)c1 was run?
**A.** inactive

**Q.** O=C(Cc1coc2cc3c(cc12)CCC3)OCc1cc(=O)n2c(n1)sc1ccccc12 was tested. Which Potency did it give?
**A.** active: 10 µM

**Q.** Which Potency does the source give for CCCN(CC(=O)Nc1ccccc1OC)C(=O)Cn1c(=O)oc2ccccc21 here?
**A.** inconclusive: 31.6 µM [inhibitor, single point]

**Q.** How did the Potency turn out when CCOc1ccccc1NC(=O)Cn1nnc(C(=O)NCc2ccco2)c1N was run?
**A.** inconclusive: 22.4 µM [inhibitor, full curve, poor fit]

**Q.** Which Potency does the source give for NNC(=O)C1CC1c1ccccc1 (centres undefined) here?
**A.** inconclusive: 79.4 µM [inhibitor, partial curve, poor fit]

**Q.** Which Potency does the source give for Cc1ccc(C(=O)N2CCN(c3ncccn3)CC2)cc1S(=O)(=O)N1CCCCC1 here?
**A.** inconclusive: 25.1 µM [inhibitor, single point]

**Q.** Which Potency does the source give for COc1ccc2nc(COC(=O)c3ccco3)c(C(C)=O)[n+]([O-])c2c1 here?
**A.** inconclusive: 39.8 µM [inhibitor, partial curve, poor fit]

**Q.** With CC(C)(C)NC(=O)C[C@H]1C[C@H](C(=O)N2CCCCC2)[C@@]2(CCc3ccccc3)c3[nH]c4cc(-c5ccco5)ccc4c3CCN2C1=O as the compound, how does the Potency read?
**A.** inactive

**Q.** O=C(OC1CCOC1=O)c1ccc2ncsc2c1 (centres undefined) was tested. Which Potency did it give?
**A.** inconclusive: 31.6 µM [inhibitor, partial curve, poor fit]

**Q.** Which Potency does the source give for O=c1cc2c(=O)oc3cc(O)c(O)oc3c2c(O)c1O here?
**A.** active: 0.708 µM

**Q.** How did the Potency turn out when COc1ccc(/C=C(\NC(=O)c2ccc(OCC(C)C)cc2)C(=O)OCc2ccco2)cc1 was run?
**A.** inconclusive: 17.8 µM [inhibitor, partial curve, poor fit]

**Q.** For CCOc1ccc(C(=O)OCC(=O)NCc2ccco2)cc1OCC, which Potency is on record?
**A.** inconclusive: 11.2 µM [inhibitor, partial curve, poor fit]

**Q.** With Cc1cc(C)n(CC(=O)NC2C(=O)N3C(C(=O)O)=C(CSc4nnc(C)s4)CSC23)n1 (centres undefined) as the compound, how does the Potency read?
**A.** active: 22.4 µM

**Q.** How did the Potency turn out when O=C(CCCl)Nc1ccc(S(=O)(=O)NCc2ccco2)cc1 was run?
**A.** inconclusive: 50.1 µM [inhibitor, partial curve]

**Q.** COc1ccc(CCNC(=O)c2cccc(-n3cnc4cccnc43)c2C)cc1OC was tested. Which Potency did it give?
**A.** inactive

**Q.** For Cc1cc(C(=O)OCC(=O)N2CC(=O)Nc3ccccc32)no1, which Potency is on record?
**A.** inactive

**Q.** How did the Potency turn out when CC(C)CNC(=O)c1ccccc1NC(=O)c1ccc(CSc2ccccc2)cc1 was run?
**A.** inconclusive: 79.4 µM [inhibitor, partial curve, poor fit]

**Q.** For COC(=O)c1ccccc1NC(=O)C1CCCN(c2nnc(-n3cccc3)s2)C1 (centres undefined), which Potency is on record?
**A.** inconclusive: 15.8 µM [inhibitor, full curve, poor fit]

**Q.** For Cc1ccccc1C(=O)Nc1nnc(-c2cccnc2)o1, which Potency is on record?
**A.** inconclusive: 3.98 µM [inhibitor, full curve, poor fit]

**Q.** With Cc1occc1C(=O)Nc1cccc([N+](=O)[O-])c1 as the compound, how does the Potency read?
**A.** inconclusive: 22.4 µM [inhibitor, partial curve, poor fit]

**Q.** Which Potency does the source give for COc1cc(Nc2nc3ccccc3n3nnnc23)cc(OC)c1OC here?
**A.** inconclusive: 50.1 µM [inhibitor, partial curve, poor fit]

**Q.** Which Potency does the source give for COC(=O)c1c(NC(=O)/C=C/C(=O)O)sc(Cc2ccccc2)c1C here?
**A.** inconclusive: 31.6 µM [inhibitor, partial curve, poor fit]

**Q.** How did the Potency turn out when O=C(NCc1cccnc1)c1ccc(NC(=O)c2ccc(Br)cc2)cc1 was run?
**A.** inactive

**Q.** Which Potency does the source give for CCOc1ccccc1NC(=O)c1ccc2nc[nH]c2c1 here?
**A.** inconclusive: 15.8 µM [inhibitor, full curve, poor fit]

**Q.** How did the Potency turn out when COc1cc(NC(=O)CC2C(=O)N(c3cccc(C)c3)C(=O)N2Cc2ccco2)cc(OC)c1 (centres undefined) was run?
**A.** inactive

**Q.** How did the Potency turn out when CCCCn1cnc2c(SCc3cccc(F)c3)nc(N)nc21 was run?
**A.** inconclusive: 100 µM [inhibitor, partial curve, poor fit]

**Q.** How did the Potency turn out when COc1cccc2sc(N3CCN(c4nc5ccccc5s4)CC3)nc12 was run?
**A.** inconclusive: 89.1 µM [inhibitor, single point]

**Q.** How did the Potency turn out when CCN(C(=O)CSc1nnc(-c2cc(OC)c(OC)c(OC)c2)o1)c1ccccc1 was run?
**A.** inactive

**Q.** For Cc1cc(O)c(C(=O)/C=C/c2ccccc2O)c(=O)o1, which Potency is on record?
**A.** inconclusive: 39.8 µM [inhibitor, partial curve, poor fit]

**Q.** For O=C1ON=C(c2ccccc2)/C1=C/c1ccc(O)c(O)c1, which Potency is on record?
**A.** active: 22.4 µM

**Q.** Which Potency does the source give for COc1cc(Cl)ccc1OCc1cc(C(=O)N(C)CCc2c(C)n[nH]c2C)no1 here?
**A.** inconclusive: 89.1 µM [inhibitor, partial curve, poor fit]

**Q.** Which Potency does the source give for CCc1cccc(CC)c1NC(=O)Cn1c(=O)c(-c2cc(C)ccc2NC(C)=O)nc2ccccc21 here?
**A.** inconclusive: 89.1 µM [inhibitor, partial curve, poor fit]

**Q.** CC(OC(=O)c1ccc(NC(=O)CC#N)cc1)C(=O)NC(c1ccccc1)c1ccccc1 (centres undefined) was tested. Which Potency did it give?
**A.** active: 50.1 µM

**Q.** How did the Potency turn out when COc1ccc(-c2nc3ccccc3n2CCC(C)C)cc1OC was run?
**A.** inconclusive: 89.1 µM [inhibitor, partial curve, poor fit]

**Q.** CCc1ccc(N2CC(O)=C(c3nc4ccccc4c(=O)[nH]3)C2=N)cc1 was tested. Which Potency did it give?
**A.** inconclusive: 7.08 µM [inhibitor, partial curve, poor fit]

**Q.** Which Potency does the source give for c1ccc(N(c2ccccc2)c2nc(-n3ccnc3)nc(-n3ccnc3)n2)cc1 here?
**A.** inconclusive: 25.1 µM [inhibitor, partial curve, poor fit]

**Q.** With C#CCN1C(=O)C(O)(CC(=O)/C=C/c2ccco2)c2ccccc21 (centres undefined) as the compound, how does the Potency read?
**A.** inconclusive: 50.1 µM [inhibitor, partial curve]

**Q.** Which Potency does the source give for CSc1ccccc1NC(=O)COC(=O)CSc1ccc(C)cc1 here?
**A.** inconclusive: 89.1 µM [inhibitor, partial curve, poor fit]
